Experiment [1] addresses T1, Human PD-L1-ECD-His (human, UniProt Q9NZQ7 fragment).
T1 construct: Bought (Sino cat. no. I-10084-H08H); not shown: His tag
Description: Octet Red96 BLI, PDL1-ECD-His loaded on anti-Penta-HIS (HIS1K) biosensor, PD1-Fc protein as analyte, 1:1 model, pH7.4; pH 7.4. (In general: BLI is a label-free optical method that tracks binding on a fibre tip over time.)

Experiment [2] addresses T1, Human PD-L1-ECD-His. Description: Octet Red96 BLI, PDL1-ECD-His loaded on anti-Penta-HIS (HIS1K) biosensor, PD1-Fc protein as analyte, 1:1 model, pH6.0; column head kdis(1/s); pH 6.
For experiment [3], the target named is T1, Human PD-L1-ECD-His. Description: Octet Red96 BLI, pH6.0; fold of affinity against PD1-Fc-wt1.
T1 sequence (Q9NZQ7 19-238): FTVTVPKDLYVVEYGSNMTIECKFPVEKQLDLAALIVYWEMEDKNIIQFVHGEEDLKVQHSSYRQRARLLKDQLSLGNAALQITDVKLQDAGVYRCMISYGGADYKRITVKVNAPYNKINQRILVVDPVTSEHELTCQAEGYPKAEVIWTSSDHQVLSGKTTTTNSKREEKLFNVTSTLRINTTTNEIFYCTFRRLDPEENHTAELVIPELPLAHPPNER
In experiment [4] the target is T1, Human PD-L1-ECD-His. Briefly: Octet Red96 BLI, PDL1-ECD-His loaded on anti-Penta-HIS (HIS1K) biosensor, PD1-Fc protein as analyte, 1:1 model, pH7.4; column head kdis(1/s); pH 7.4.
In experiment [5] the target is T1, Human PD-L1-ECD-His. Description: Octet Red96 BLI, pH7.4; fold of affinity against PD1-Fc-wt1.
For experiment [6], the target named is T2, PD-L1 on PD-L1 transfected CHO-S cells (human, UniProt Q9NZQ7).
T2 construct: also called PD-L1 tf CHO-S cells
Description: flow cytometry on PDL1 transfected CHO-S cells, goat anti-human Fc PE detection, pH6.0. Background: In flow cytometry, cells or beads pass a laser one at a time.

The target of experiment [7] is T1, Human PD-L1-ECD-His. Description: Octet Red96 BLI, PDL1-ECD-His loaded on anti-Penta-HIS (HIS1K) biosensor, PD1-Fc protein as analyte, 1:1 model, pH6.0; pH 6.

For orientation: Kd means the concentration at which binding is half-saturated. Low readings indicate higher affinity, high ones lower affinity. For orientation: kon means the second-order rate constant of association. Higher therefore signals faster complex formation. A word on the koff: it is the rate constant with which the complex falls apart. A high value points to fast dissociation. As usually defined, the EC50 (read off the curve) is the midpoint of the concentration-response curve.

B1: PD1-Fc-mt6 (Fc fusion)
chain: SHGHGGGPTFSPALLVVTEGDNATFTCSFSNTSESFVLNWYRMSPHNQTDKLAAFPEDRSQPGQDCRFRVTQLPNGRDFHMSVVRARRNDSGTYLCGAISLAPKAQIKESLRAELRVTERRAEVPTAHPSPSPRPAGQFQTLV[human IgG4 Fc with S228P (EU numbers) not shown]
Regarding B1, the Kd in the experiment with Human PD-L1-ECD-His [1] came out at 6.1 nM; in the experiment with Human PD-L1-ECD-His [7], 6.74 nM. Besides, the kon in the experiment with Human PD-L1-ECD-His [1] came out at 1.03e+06 M⁻¹ s⁻¹; with Human PD-L1-ECD-His [7], 806000 M⁻¹ s⁻¹. Also, the koff came out at 0.00544 s⁻¹ with Human PD-L1-ECD-His [2] and 0.0063 s⁻¹ with Human PD-L1-ECD-His [4]. In addition, the Fold in the experiment with Human PD-L1-ECD-His [3] was determined as 2.66; with Human PD-L1-ECD-His [5], 1.64. Also, the “EC50 (read off the curve)” value in experiment [6] was roughly 2 µg/mL.

B2: PD1-Fc-mt9 (Fc fusion)
chain: SHHGHGHGGGGPTFSPALLVVTEGDNATFTCSFSNTSESFVLNWYRMSPSNQTDKLAAFPEDRSQPGQDCRFRVTQLPNGRDFHMSVVRARRNDSGTYLCGAISLAPKAQIKESLRAELRVTERRAEVPTAHPSPSPRPAGQFQTLV[human IgG4 Fc with S228P (EU numbers) not shown]
Regarding B2, the dissociation constant Kd was found to be 5.92 nM with Human PD-L1-ECD-His [1] and 6.98 nM with Human PD-L1-ECD-His [7]. The kon with Human PD-L1-ECD-His [1] was 846000 M⁻¹ s⁻¹; in the experiment with Human PD-L1-ECD-His [7], 706000 M⁻¹ s⁻¹. Moreover, the koff with Human PD-L1-ECD-His [2] amounted to 0.00493 s⁻¹; with Human PD-L1-ECD-His [4], 0.00501 s⁻¹. In addition, the results for the Fold with Human PD-L1-ECD-His [3] and with Human PD-L1-ECD-His [5] were 2.56 and 1.69, respectively.

B3: PD1-Fc-mt12 (Fc fusion)
chain: SHHGHGHGGGGPTFSPALLVVTEGDNATFTCSFSNTSESFVLNWYRMSPHNQTDKLAAFPEDRSQPGQDCRFRVTQLPNGRDFHMSVVRARRNDSGTYLCGAISLAPKAQIKESLRAELRVTERRAEVPTAHPSPSPRPAGQFQTLV[human IgG4 Fc with S228P (EU numbers) not shown]
Regarding B3, the Kd with Human PD-L1-ECD-His [1] came out at 6.89 nM; in the experiment with Human PD-L1-ECD-His [7], 7.42 nM. Besides, the results for the kon with Human PD-L1-ECD-His [1] and with Human PD-L1-ECD-His [7] were 1.02e+06 M⁻¹ s⁻¹ and 943000 M⁻¹ s⁻¹, respectively. Besides, the results for the off-rate (koff) with Human PD-L1-ECD-His [2] and with Human PD-L1-ECD-His [4] were 0.00699 s⁻¹ and 0.00703 s⁻¹, respectively. In addition, the Fold amounted to 2.41 with Human PD-L1-ECD-His [3] and 1.45 with Human PD-L1-ECD-His [5].

B4: PD1-Fc-mt11 (Fc fusion)
chain: SHGHGHHGGGGPTFSPALLVVTEGDNATFTCSFSNTSESFVLNWYRMSPSNQTDKLAAFPEDRSQPGQDCRFRVTQLPNGRDFHMSVVRARRNDSGTYLCGAISLAPKAQIKESLRAELRVTERRAEVPTAHPSPSPRPAGQFQTLV[human IgG4 Fc with S228P (EU numbers) not shown]
As to B4, the Kd with Human PD-L1-ECD-His [1] was 5.08 nM; in the experiment with Human PD-L1-ECD-His [7] it was 7.42 nM. Also, the kon was found to be 1.06e+06 M⁻¹ s⁻¹ in the experiment with Human PD-L1-ECD-His [1] and 808000 M⁻¹ s⁻¹ with Human PD-L1-ECD-His [7]. In addition, the values for the koff in the experiment with Human PD-L1-ECD-His [2] and with Human PD-L1-ECD-His [4] were 0.006 s⁻¹ and 0.0054 s⁻¹, respectively. For the same molecule, the Fold in the experiment with Human PD-L1-ECD-His [3] amounted to 2.41; in the experiment with Human PD-L1-ECD-His [5], 1.97.

B5: PD1-Fc-mt14 (Fc fusion)
chain: SHGHGHHGGGGPTFSPALLVVTEGDNATFTCSFSNTSESFVLNWYRMSPHNQTDKLAAFPEDRSQPGQDCRFRVTQLPNGRDFHMSVVRARRNDSGTYLCGAISLAPKAQIKESLRAELRVTERRAEVPTAHPSPSPRPAGQFQTLV[human IgG4 Fc with S228P (EU numbers) not shown]
Turning to B5, the values for the Kd with Human PD-L1-ECD-His [1] and with Human PD-L1-ECD-His [7] were 7.44 nM and 8.56 nM, respectively. In addition, the kon is 902000 M⁻¹ s⁻¹ with Human PD-L1-ECD-His [1] and 881000 M⁻¹ s⁻¹ in the experiment with Human PD-L1-ECD-His [7]. Besides, the koff in the experiment with Human PD-L1-ECD-His [2] was determined as 0.00754 s⁻¹; with Human PD-L1-ECD-His [4], 0.00671 s⁻¹. Moreover, the Fold in the experiment with Human PD-L1-ECD-His [3] turned out to be 2.09; in the experiment with Human PD-L1-ECD-His [5], 1.34.

B6: PD1-Fc-mt13 (Fc fusion)
chain: SHGHHGHGGGGPTFSPALLVVTEGDNATFTCSFSNTSESFVLNWYRMSPHNQTDKLAAFPEDRSQPGQDCRFRVTQLPNGRDFHMSVVRARRNDSGTYLCGAISLAPKAQIKESLRAELRVTERRAEVPTAHPSPSPRPAGQFQTLV[human IgG4 Fc with S228P (EU numbers) not shown]
Turning to B6, the dissociation constant (Kd) with Human PD-L1-ECD-His [1] is 5.55 nM; with Human PD-L1-ECD-His [7] it was 6.1 nM. The kon in the experiment with Human PD-L1-ECD-His [1] turned out to be 1.18e+06 M⁻¹ s⁻¹; in the experiment with Human PD-L1-ECD-His [7], 1.1e+06 M⁻¹ s⁻¹. Besides, the koff worked out at 0.00674 s⁻¹ with Human PD-L1-ECD-His [2] and 0.00658 s⁻¹ in the experiment with Human PD-L1-ECD-His [4]. The results for the Fold with Human PD-L1-ECD-His [3] and with Human PD-L1-ECD-His [5] were 2.93 and 1.8, respectively.

The record behind these values is patent US20250115658A1 (FBD BIOLOGICS, published 2025).
